Measurements taken from PubChem BioAssay AID720542 (National Center for Advancing Translational Sciences (NCATS), 2013).
Hit rate of the full screen: of about 360,000 compounds, about 740 (0.21%) were called active. Inconclusive means that the source gave no clear call. Such entries were picked first, then a sample of the others. The call rests on the fitted dose curve; in most records, active means well fitted inhibition curve with a large enough effect; inconclusive means small, poorly fitted or top-dose-only effect; inactive means no such curve, though single readings can be large or run the other way. Potencies of inconclusive entries are left out as doubtful fits.

Each molecule was assayed on Plasmodium falciparum AMA1 (3D7) - RON2 peptide interaction (assay: qHTS for Inhibitors of AMA1-RON; Towards Development of Antimalarial Drug Lead: Primary Screen). Settings: AlphaScreen AMA1-biotinylated RON2 peptide binding; activity change, negative = inhibition: at 58.2 µM (top of the series) unless noted.
In short: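 AMA1 (3D7) with his tag at 25 nM final met compounds first, then biotinylated RON2 peptide at 25 nM; detection used donor plus acceptor beads, 10 µg/mL apiece, read by AlphaScreen after 30 min at room temperature.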
Further: nearly all actives have a fitted effect of over 45% in size.
Potency means the concentration at half of the fitted maximal effect; tags describe the fitted curve by direction and shape.
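Wherever activity change, negative = inhibition is given: 0% = vehicle wells and -100% = peptide control.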

Row | Compound | Potency | activity change, negative = inhibition
1 | COc1ccc(CN2CCN(S(=O)(=O)c3ccc(F)cc3)CC2)cc1OC | inconclusive [inhibitor, partial curve] | 
2 | CC(C)Oc1ccc(S(=O)(=O)N2CCOCC2)cc1NC(=O)c1ccc(N2CCCC2=O)cc1 |  | inactive: -7.16%
3 | O=S(=O)(c1cccc(Cl)c1Cl)N1CCN(C(=S)NCCCN2CCOCC2)CC1 | inconclusive [inhibitor, partial curve] | 
4 | CCN(C(=O)CSc1nncn1-c1ccccc1)c1c(N)n(Cc2ccccc2)c(=O)[nH]c1=O | inconclusive [inhibitor, partial curve] | 
5 | CCN(CC)c1ccc(NC(=O)CSc2nc3nc(C)cc(C)c3c(=O)[nH]2)cc1 | inconclusive [inhibitor, single point] | 
6 | CCOc1cc(C2C3=C(CCCC3=O)Nc3nc(C(=O)OC)nn32)ccc1OC (centres undefined) |  | inactive: 7.24%
7 | O=C1C=C(c2ccc(Cl)cc2)OC2(CCCC2)O1 | inconclusive [inhibitor, full curve, poor fit] | 
8 | Cc1ccc(N(C(=O)c2csnn2)C(C(=O)NC(C)(C)C)c2cccnc2)cc1C (centres undefined) | inconclusive [inhibitor, full curve, poor fit] | 
9 | Cc1ccc2c(CN3CCCCC3CCO)cc(=O)oc2c1 (centres undefined) |  | inactive: -2%
10 | CCCCS(=O)(=O)N1C2=NC(C(=O)OC)=C(C(=O)OC)[C@@H]3N(C)c4ccc(OC)cc4[C@]23C[C@H]1C(=O)OC | inconclusive [inhibitor, partial curve] | 
11 | Cc1ccc(C)c(-n2c(-c3csc(C)c3C)n[nH]c2=S)c1 |  | inactive: 39.4%
12 | Cc1cc(S(=O)(=O)N2CCCC2)ccc1OCC(=O)NC1CCCC1 |  | inactive: -3.79%
13 | O=[N+]([O-])c1cccc2ccc(/C=C/c3ccc(F)cc3)nc12 | inconclusive [inhibitor, partial curve] | 
14 | Cc1ccc(S(=O)(=O)CCc2nnc(NC(=O)c3ccccn3)s2)cc1 | inconclusive [inhibitor, single point] | 
15 | CN(CC(=O)NC1CCN(Cc2ccccc2)CC1)S(=O)(=O)c1ccc2c(c1)c(=O)n(C)c(=O)n2C | inconclusive [inhibitor, single point] | 
16 | Cc1cc(C)c(C#N)c(SCC(=O)c2ccc(Cl)cc2Cl)n1 | inconclusive [inhibitor, single point] | 
17 | COc1ccc(N2CCN(C(=O)Oc3ccc([N+](=O)[O-])cc3)CC2)cc1 | inconclusive [inhibitor, partial curve] | 
18 | COc1cc(OC)cc(-c2sc3ccc(OC)cc3c2-c2ccc(OCCN3CCCCC3)cc2)c1 | inconclusive [inhibitor, partial curve] | 
19 | COc1cccc(C(=O)/C=C/c2ccc(N3CCCCC3)c([N+](=O)[O-])c2)c1 | active: 5.01 µM | 
20 | CCn1c(N)[n+](CC(=O)Nc2ccc(SC(F)F)cc2)c2ccccc21 | inconclusive [inhibitor, single point] | 
21 | c1ccc(-c2ccc(CN3CCN(c4ncccn4)CC3)cc2)cc1 | inconclusive [inhibitor, partial curve] | 
22 | Cc1ccc2nc(N(CCCN(C)C)C(=O)c3sc4ccccc4c3Cl)sc2c1 | inconclusive [inhibitor, single point] | 
23 | Cc1nnc(NS(=O)(=O)c2ccc(N=Nc3ccc(N)nc3N)cc2)s1 | inconclusive [inhibitor, partial curve] | 

Row | Compound | Potency | activity change, negative = inhibition
24 | COc1ccc2oc(C)c(C(=O)c3ccc([N+](=O)[O-])cc3)c2c1 | inconclusive [inhibitor, single point] | 
25 | Cc1cc(C)c(S(=O)(=O)N2C[C@H]3CON(C)[C@H]3C[C@H]2c2ccc(N3CCCCC3)cc2)c(C)c1 | inconclusive [inhibitor, partial curve] | 
26 | OC[C@@H]1CN(Cc2cccs2)C[C@H](n2cnc3c(N4CCN(c5ccccc5)CC4)ncnc32)O1 | inconclusive [inhibitor, partial curve] | 
27 | CC(=O)NC1C(=O)N(CCN2CCOCC2)c2ccc(Br)cc21 (centres undefined) | inconclusive [inhibitor, single point] | 
28 | CCOc1cc(/C=N/NC(=O)CCCC(=O)NC2CCCCC2)ccc1O | inconclusive [inhibitor, partial curve] | 
29 | c1ccc(COc2ncnc3c2ncn3CCCN2CCN(Cc3cccc4ccccc34)CC2)cc1 | inconclusive [inhibitor, partial curve] | 
30 | OC(CCN1CCC2CCC(C2)C1)c1ccc(Br)cc1 (centres undefined) |  | inactive: 1.61%
31 | CCOC(=O)C1=C(C)N(c2ccc(OCC)cc2)C(=O)/C1=C\c1ccco1 | inconclusive [inhibitor, partial curve] | 
32 | CCc1ccc(NC(=O)CSc2ccc(-c3ccccn3)nn2)cc1 | inconclusive [inhibitor, single point] | 
33 | CC(=O)NC1=NN(C(C)=O)C(c2ccc(C)cc2)S1 (centres undefined) | inconclusive [inhibitor, partial curve] | 
34 | CC(=O)Nc1ccc(NC(=O)CSc2nccn2Cc2ccco2)cc1 |  | inactive: -0.549%
35 | COc1ccc(-c2nnc(SCC(=O)Nc3cc(C)on3)o2)cc1 |  | inactive: 115%
36 | O=C(CC(C(=O)N1CCc2ccccc21)n1ccnc1)NCc1ccccc1 (centres undefined) |  | inactive: -4.2%
37 | Cc1cccc(N/N=C/c2ccc(O)c(O)c2O)c1 | inconclusive [inhibitor, full curve] | 
38 | CCN1CCN(c2ccc(NC(=O)c3ccc4c(c3)[nH]c(=O)n4Cc3ccc(OC)cc3)cc2)CC1 | inconclusive [inhibitor, partial curve] | 
39 | O=C(Nc1cccc(F)c1)Nc1ccccn1 | inconclusive [inhibitor, single point] | 
40 | Clc1ccccc1N/N=C/c1ccc2c(c1)OCO2 | inconclusive [inhibitor, partial curve] | 
41 | CC(C)(CO)NC(=O)CC1C(=O)NCCN1Cc1ccc(-c2ccccc2)cc1 (centres undefined) |  | inactive: -0.391%
42 | Cc1ccc2nc(-c3ccccc3)cc(C(=O)N3CCN(S(=O)(=O)c4c(C)noc4C)CC3)c2c1 | inconclusive [inhibitor, partial curve, poor fit] | 
43 | COC(=O)C[C@@H]1CC[C@H](NC(=O)c2cnccn2)[C@@H](CO)O1 |  | inactive: 1.06%
44 | CC(C(=O)N1c2ccccc2CC1C)N1CCN(S(=O)(=O)c2ccccc2F)CC1 (centres undefined) | inconclusive [inhibitor, partial curve, poor fit] | 
45 | CCc1ccccc1NC(=O)c1cc(S(=O)(=O)N2CCc3ccccc32)cn1C |  | inactive: -8.28%
46 | COc1ccc(-c2noc(CCCC(=O)O)n2)cc1 | inconclusive [inhibitor, single point] | 

Row | Compound | Potency | activity change, negative = inhibition
47 | Cc1cc(C)nc(/N=C2/NC(=O)CS2)n1 | inconclusive [inhibitor, single point] | 
48 | CCOc1ccc(Cl)cc1S(=O)(=O)N1CCN(c2ccc(C)c(C)c2)CC1 | inconclusive [inhibitor, full curve, poor fit] | 
49 | Cc1cc(Br)ccc1NCc1ccccn1 | inconclusive [inhibitor, partial curve] | 
50 | COC(=O)c1cc(OC)c(OC)cc1NCC(=O)Nc1ccc(OC)c(OC)c1 | inconclusive [inhibitor, single point] | 
51 | Cc1cc(N)c2cc(NC(=O)/C=C/c3ccccc3Cl)ccc2n1 | inconclusive [inhibitor, single point] | 
52 | CC(OCC(O)CNCC1COc2ccccc2O1)c1ccc(Cl)cc1 (centres undefined) |  | inconclusive: -31.5% [inhibitor]
53 | Cc1oc(-c2ccccc2)nc1C(=O)O |  | inactive: -7.3%
54 | COc1ccc(C(CNC(=O)c2cccc(S(=O)(=O)N3CCCCC3)c2)N2CCCC2)cc1 (centres undefined) |  | inactive: 4.39%
55 | CCOC(=O)CNC(=O)Cn1cnc2sc(C)c(S(=O)(=O)N3CCC(C)CC3)c2c1=O | inconclusive [inhibitor, partial curve] | 
56 | Cn1cc(C(=O)N/N=C/c2c(O)ccc3ccccc23)ccc1=O | inconclusive [inhibitor, single point] | 
57 | Cc1oc(C(=O)O)cc1CSCc1ccoc1C(=O)O |  | inactive: -5.49%
58 | CC1CN(C(=O)C2(C)CC2(Cl)Cl)CC(C)O1 (centres undefined) |  | inactive: 11.7%
59 | COc1ccc(OC)c(C2NC(=O)c3sc(=S)n(-c4ccccc4)c3N2)c1 (centres undefined) | inconclusive [inhibitor, full curve, poor fit] | 
60 | NC(=O)c1cc2cc([N+](=O)[O-])ccc2oc1=O |  | inactive: 3.38%
61 | COc1ccc(N2CCN(C(=O)c3cc(=O)c4cc(C)c(C)cc4o3)CC2)cc1 |  | inactive: 41.1%
62 | Cc1oc(-c2ccccc2)cc1C(=O)Nc1ccc(N(C)C)cc1 | inconclusive [inhibitor, partial curve] | 
63 | C=CC(=O)N(CCC)C(c1ccccc1)c1ccccc1OC (centres undefined) |  | inactive: -4.05%
64 | CCN(CC)CCNC(=O)c1c(O)c2ccccc2n(Cc2ccccc2)c1=O |  | inactive: 8.23%
65 | COc1ccc(S(=O)(=O)N2CCN(C(=O)c3cc(-c4ccccc4OC)n[nH]3)CC2)cc1 |  | inactive: 9.54%
66 | COc1ccccc1CN1CCc2c([nH]c3ccccc23)C1 | inconclusive [inhibitor, single point] | 
67 | CCOC(=O)c1cnc2c(OC)cccc2c1N1CCN(c2ccccc2OC)CC1 | inconclusive [inhibitor, partial curve, poor fit] | 
68 | Nc1nc(NCCCN2CCOCC2)nc(Nc2ccccc2F)c1[N+](=O)[O-] |  | inactive: 6.48%
69 | C=CCc1cc(OC)ccc1OCCN1CC(C)OC(C)C1 (centres undefined) | active: 12.6 µM | 
